Source: PubChem BioAssay AID504832 (National Center for Advancing Translational Sciences (NCATS), 2011)
Hit rate of the full screen: of about 310,000 compounds, about 18,000 (5.8%) were called active. This list was built around the results that the source calls inconclusive (neither active nor inactive); the mix of calls is not that of the screen. The call rests on the fitted dose curve; in most records, active means well fitted inhibition curve with a large enough effect; inconclusive means small, poorly fitted or top-dose-only effect, or another doubt; inactive means no such curve, though single readings can be large or run the other way. Potencies of inconclusive entries are left out as doubtful fits.
On the % scale 0 is the no-effect control and ±100 the full control effect; potency means the concentration at half of the fitted maximal effect; tags describe the fitted curve by direction and shape.

Experiment: Primary qHTS for delayed death inhibitors of the malarial parasite plastid, 48 hour incubation
Conditions: P. falciparum luciferase growth in erythrocytes; series mostly up to 28.7 µM
Outline: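 Erythrocytes infected with P. falciparum carrying an integrated firefly luciferase reporter (2% hematocrit, 0.1% parasitemia final) were exposed to compounds in RPMI 1640 with 0.5% Albumax at 37 C, 5% CO2. Growth inhibition was scored as reduced luminescence.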
In the case of CCCCCC(=O)c1c(C)[nH]c(C(=O)OCC)c1C, the Potency is reported as inconclusive [inhibitor, single point].
In the case of Cn1c(-c2ccc(-c3ccccc3)cc2)c[nH]c1=S, the Potency is reported as active: 5.22 µM.
For C=C(C)C1(O)OC(=O)C=C1OC (stereo unspecified), the Potency was inconclusive [inhibitor, partial curve].
In the case of CCCCOc1ccc(C(=O)NCC(=O)N2CC(C)CC(C)C2)cc1 (stereo unspecified), the Potency is reported as inconclusive [inhibitor, single point].
In the case of CCN(CC)CCNC(=O)c1ccc(NC(=O)Cc2cccc3ccccc23)cc1, the Potency is reported as inconclusive [inhibitor, single point].
With CCCNC(=O)CCCN1C(=O)c2ccccc2Sc2ncccc21 the Potency was “inactive”.
For S=C(Nc1ccc(Oc2ccc(NC(=S)NC3CCCCC3)cc2)cc1)NC1CCCCC1, the Potency was inconclusive [inhibitor, single point].
With O=C(N/N=C/c1cccc(OC2CSC2)c1)c1ccccc1O the Potency was inconclusive [inhibitor, single point].
In the case of O=C(CCc1ccccc1)NNC(=O)Nc1cccc(Cl)c1, the Potency is reported as “inactive”.
For CC12CCC3c4ccc(O)cc4CCC3C1CCC2=O (stereo unspecified), the Potency was inconclusive [inhibitor, partial curve].
For FC(F)Sc1ccc(-n2cc(-c3ccccc3)[n+]3c2CCC3)cc1, the Potency was active: 1.17 µM.
With CCN(c1ccccc1)S(=O)(=O)c1cc(NC(=O)COC(=O)C2CC2)ccc1Cl the Potency was inconclusive [inhibitor, single point].
In the case of CC(=O)c1ccc(N2CCN(S(=O)(=O)c3ccc4c(c3)CC(=O)N4)CC2)cc1, the Potency is reported as inconclusive [inhibitor, partial curve, poor fit].
In the case of CCC(=O)NNc1nc2c(F)cccc2s1, the Potency is reported as “inactive”.
For CN(C)C(=O)CN1C(=O)NC(c2ccccc2)(c2ccccc2)C1=O, the Potency was “inactive”.
With CCC(C)CCN1C(Nc2ccccc2)=NC[C@@H]1CC(C)C (stereo partly specified) the Potency was inconclusive [inhibitor, single point].
For Cn1c(=O)n(C)c2cc(N3CCCCC3)c(NC(=O)c3ccccc3)cc21, the Potency was inconclusive [inhibitor, single point].
For CC(C)COc1cccc(C(=O)NC(=S)Nc2cccc(NC(=O)c3ccccc3Cl)c2)c1, the Potency was “inactive”.
For COc1cc(CNC(C)(C)C)ccc1OCC(=O)NC(C)(C)C, the Potency was inconclusive [inhibitor, single point].
With CSc1ccccc1OCc1cc(C(=O)NCCC2CCCCO2)no1 (stereo unspecified) the Potency was “inactive”.
In the case of Cc1ccc(C(=O)C(C)OC(=O)C2CCN(c3ccc(C(F)(F)F)cn3)CC2)cc1C (stereo unspecified), the Potency is reported as inconclusive [inhibitor, full curve].
With COC(OC)C12c3ccccc3C(c3ccccc31)C1C(=O)N(c3cccnc3)C(=O)C12 (stereo unspecified) the Potency was inconclusive [inhibitor, partial curve, poor fit].
With Cc1cc(NC(=O)CS(=O)(=O)c2cn(Cc3ccccc3Cl)c3ccccc23)no1 the Potency was “inactive”.
With COc1cc(-c2nnc(SCC(=O)/C(C#N)=C(\C)N)o2)cc(OC)c1OC the Potency was inconclusive [inhibitor, single point].
For CCc1c(C(C)S(=O)(=O)c2ccc(C)cc2)[nH]c(=O)n1-c1ccc(C)cc1 (stereo unspecified), the Potency was inconclusive [inhibitor, partial curve, poor fit].
With COC(=O)C1=C(C(=O)OC)C2(OC1c1cccc(F)c1)C(=O)c1ccccc1C2=O (stereo unspecified) the Potency was inconclusive [inhibitor, partial curve].
For Cc1cc(OCC(=O)OCC(=O)Nc2cc(C(F)(F)F)ccc2N2CCOCC2)ccc1Cl, the Potency was “inactive”.
With CCCc1cc(=O)oc2c(C)c(OCC(=O)Nc3cccnc3)ccc12 the Potency was active: 3.29 µM.
With C=CCC1(C#N)C(=S)NC(C)=C(C(=O)OCC)C1c1ccccc1 (stereo unspecified) the Potency was active: 1.47 µM.
For COc1cc(CNCCNC(=O)c2nonc2N)ccc1OCc1ccc(Cl)nc1, the Potency was inconclusive [inhibitor, single point].
With CCN(C(=O)CSc1nnc(NC2CCCCC2)s1)C1CCS(=O)(=O)C1 (stereo unspecified) the Potency was inconclusive [inhibitor, single point].
For CC1CCN(c2ccc(NC(=S)NC(=O)c3ccco3)cc2)CC1, the Potency was inconclusive [inhibitor, single point].
With CCCOc1ccc(/C=N/NC(=O)CN2CCCCC2)cc1 the Potency was inconclusive [inhibitor, single point].
For Cc1ccc(S(=O)(=O)N2CCN(c3ccccc3)CC2)cc1C(N)=O, the activity change, negative = inhibition was inactive: -18.7% [at 5.75 µM].
In the case of Cc1ccc(NC(=O)CC2NCCNC2=O)cc1Cl (stereo unspecified), the Potency is reported as “inactive”.
In the case of Cc1ccc2c(c1)c1c3n2CCNC3CCC1 (stereo unspecified), the Potency is reported as inconclusive [inhibitor, single point].
In the case of CN(CC(=O)Nc1ccccc1Cl)C(=O)CCSc1ccc(F)cc1, the Potency is reported as inconclusive [inhibitor, partial curve, poor fit].
With c1ccc(C2=NN(c3ccccc3)C(c3ccco3)C2)cc1 (stereo unspecified) the Potency was inconclusive [inhibitor, single point].
For CCOc1ccc(OCC)c(C2C(C#N)=C(N)N(c3cccnc3)C3=C2C(=O)CC(C)(C)C3)c1 (stereo unspecified), the Potency was inconclusive [inhibitor, single point].
With CC(=O)Nc1cccc(N)c1 the Potency was “inactive”.
With O=C(CCN1C(=O)C2CC=CCC2C1=O)Nc1cccc(Cl)c1 (stereo unspecified) the Potency was “inactive”.
With CC(C)(C)c1ccc(OCCC(=O)NC2=NCCS2)cc1 the Potency was “inactive”.
In the case of C/C(=N\NC(=O)c1cc(Br)ccc1O)c1cccc(NC(=O)c2ccccc2F)c1, the Potency is reported as “inactive”.
For O=C(NCc1ccccc1Cl)c1ccc(S(=O)(=O)N2CCCC2)cc1, the Potency was inconclusive [inhibitor, single point].
With CCCCSc1nnc(-c2ccc(NC(=O)CCc3ccccc3)cc2)n1C the Potency was inconclusive [inhibitor, partial curve].
In the case of CCN(CC(=O)NCc1ccc(Cl)cc1)C(=O)CCC(=O)c1ccc(C)cc1, the Potency is reported as inconclusive [inhibitor, single point].
